Laboratory results as given in PubChem BioAssay (Tox21).
Several values for one entry are separate records, joined by “and”; a condition that tells them apart may be missing. Identical values can stand only once. The shares of active, inactive and inconclusive entries below differ from those in the screen. For some of these results: A potency beside an inconclusive call is a rough fit, not a confirmed value. Activity calls are given as the source filed them. Unless noted, the call rests on the fitted dose curve; in most records, active means well fitted curve in the direction sought with a large enough effect in the repeat runs; inconclusive means weak or mixed curves; inactive means no such curve, though single readings can be large; an effect the other way counts as inactive or inconclusive.

Legend:
[1] = qHTS RealTime-Glo MT Cell Viability Assay in HepG2 cells - 24 hour (AID 1224867); further: nearly all actives have a fitted effect of over 50% in size; further: potency means the concentration at half of the fitted maximal effect
Summary of the method: (§1)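 HepG2 cells (600/well) were dispensed with RealTime-Glo reagents, incubated 5 h at 37 °C, then treated with compounds in DMSO for up to 40 h. Nonlytic NanoLuc luminescence reflecting viable cells was read at each stated time point.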

[2] = qHTS RealTime-Glo MT Cell Viability Assay in HEK293 cells - 32 hour (AID 1224868); further: nearly all actives have a fitted effect of over 50% in size; further: potency means the concentration at half of the fitted maximal effect
Summary of the method: (§2)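 HEK293 cells seeded with NanoLuc/prosubstrate reagent, rested 5 h at 37 C, then dosed and kept at 37 C up to 40 h. Nonlytic real-time luminescence from viable cells read at 0, 8, 16, 24, 32 and 40 h.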

[3] = qHTS RealTime-Glo MT Cell Viability Assay in HepG2 cells - 40 hour (AID 1224870); further: potency means the concentration at half of the fitted maximal effect; nearly all actives have a fitted effect of over 50% in size
Summary of the method: (§3)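 HepG2 cells (600/well) mixed with RealTime-Glo MT reagent, settled 5 h at 37 C/5% CO2 before compound addition. Nonlytic NanoLuc luminescence from viable-cell prosubstrate reduction read repeatedly during 40 h treatment at 37 C.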

[4] = qHTS RealTime-Glo MT Cell Viability Assay in HEK293 cells - 40 hour (AID 1224874); settings: RealTime-Glo luminescence; max response: active compounds read low; further: nearly all actives have a fitted effect of over 50% in size; further: potency means the concentration at half of the fitted maximal effect; on max response: on the % scale 0 is the no-effect control and ±100 the full control effect
Summary of the method: (§4)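 600 HEK293 cells per well, dispensed already mixed with RealTime-Glo MT reagents. Compound dosing came 5 h later. The same wells were read for luminescence at 0, 8, 16, 24, 32 and 40 h of exposure at 37 C.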

[5] = A CellTox Green Cytotoxicity Assay to monitor cytotoxicity in HEK293 cells - 24 hour (AID 1224875); further: nearly all actives have a fitted effect of over 45% in size; further: potency means the concentration at half of the fitted maximal effect; on activity change: on the % scale 0 is the no-effect control and ±100 the full control effect
Summary of the method: (§5)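 Dead-cell fluorescence measured kinetically: asymmetric cyanine dye, HEK293, 600 cells/well, 5 h settle, 23 nL cpd/DMSO, 37 C, reads 0–40 h every 8 h.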

[6] = A CellTox Green Cytotoxicity Assay to monitor cytotoxicity in HepG2 cells - 40 hour (AID 1224879); further: nearly all actives have a fitted effect of over 40% in size; further: potency means the concentration at half of the fitted maximal effect
Summary of the method: (§6)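 First, HepG2 cells (600/well) mixed with reagent were plated; second, after 5 h at 37 C they received compounds via pintool; third, fluorescence was measured at 0 h through 40 h at 8 h intervals.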

[7] = A CellTox Green Cytotoxicity Assay to monitor cytotoxicity in HEK293 cells - 32 hour (AID 1224881); further: potency means the concentration at half of the fitted maximal effect; nearly all actives have a fitted effect of over 40% in size
Summary of the method: as §5

[8] = A CellTox Green Cytotoxicity Assay to monitor cytotoxicity in HEK293 cells - 40 hour (AID 1224871); further: on the % scale 0 is the no-effect control and ±100 the full control effect; nearly all actives have a fitted effect of over 45% in size
Summary of the method: as §5

[9] = A CellTox Green Cytotoxicity Assay to monitor cytotoxicity in HepG2 cells - 24 hour (AID 1224878); further: nearly all actives have a fitted effect of over 45% in size; further: potency means the concentration at half of the fitted maximal effect; on Cytotoxicity: on the % scale 0 is the no-effect control and ±100 the full control effect
Summary of the method: as §6

[10] = qHTS RealTime-Glo MT Cell Viability Assay in HepG2 cells - 8 hour (AID 1224873); further: potency means the concentration at half of the fitted maximal effect; nearly all actives have a fitted effect of over 55% in size
Summary of the method: as §3

[11] = qHTS assay to identify small molecule agonists of the estrogen related receptor (ERR) signaling pathway from Tox21 library (AID 1224849; calls by dose curve; further: on the % scale 0 is the no-effect control and ±100 the full control effect; nearly all actives have a fitted effect of over 15% in size); settings: ERR reporter cell line, ONE-Glo luciferase, 18 h; at 92.4 µM (top of the series) unless noted
Summary of the method: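 Quantitative HTS in agonist format: NTP ERR cell line, compounds transferred in DMSO after 6 h plating, 18 h incubation at 37 C, ONE-Glo luminescence endpoint.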

[12] = A CellTox Green Cytotoxicity Assay to monitor cytotoxicity in HepG2 cells - 0 hour (AID 1224882); further: nearly all actives have a fitted effect of over 35% in size; further: potency means the concentration at half of the fitted maximal effect; on Cytotoxicity: on the % scale 0 is the no-effect control and ±100 the full control effect
Summary of the method: as §6

[13] = qHTS RealTime-Glo MT Cell Viability Assay in HEK293 cells - 16 hour (AID 1224872)
Summary of the method: as §2

[14] = A CellTox Green Cytotoxicity Assay to monitor cytotoxicity in HepG2 cells - 16 hour (AID 1224876); further: potency means the concentration at half of the fitted maximal effect; nearly all actives have a fitted effect of over 45% in size
Summary of the method: as §6

[15] = qHTS RealTime-Glo MT Cell Viability Assay in HepG2 cells - 32 hour (AID 1224877); further: potency means the concentration at half of the fitted maximal effect; nearly all actives have a fitted effect of over 55% in size
Summary of the method: as §1

[16] = qHTS RealTime-Glo MT Cell Viability Assay in HEK293 cells - 0 hour (AID 1224880)
Summary of the method: as §4
Tags describe the fitted curve by direction and shape.

CC[N+](CC)(CC)CCOc1ccc(/C=C/c2ccccc2)cc1
inconclusive: Potency [1] 21.3 µM [falling, partial curve, poor fit] | Potency [2] 1.9 µM [cytotoxic, full curve] | Potency [4] 1.69 µM [cytotoxic, full curve] | Potency [5] 7.56 µM [activator, partial curve, poor fit] | Potency [6] 26.8 µM [activator, single point]
active: Potency [3] 23.9 µM | Potency [7] 6.74 µM

Cc1cc([N+](=O)[O-])ccc1N
inactive: Potency [1] | Potency [8] | Potency [9]

C=C(C)C(=O)OCCC(F)(F)C(F)(F)C(F)(F)C(F)(F)C(F)(F)C(F)(F)F
inactive: Potency [1]

CCCCC(CC)COC(=O)/C=C\C(=O)OCC(CC)CCCC (centres undefined)
inconclusive: Potency [1] 43.6 µM [falling, partial curve] | Potency [10] 13.8 µM [falling, full curve] and 8.71 µM [falling, full curve]
inactive: max response [4] 1.02% and -3.16%

Nc1ccc(NC(=O)c2ccc(N)cc2)cc1
inactive: Potency [6] | Potency [12]
inconclusive: activity change, positive = activation [11] 16.1%

Cc1c(-c2ccc(O)cc2)n(Cc2ccc(OCCN3CCCCCC3)cc2)c2ccc(O)cc12
active: Potency [1] 15.1 µM | Potency [2] 3.01 µM | Potency [13] 2.68 µM | Potency [5] 21.3 µM

O=C(Cl)c1ccc(Cl)cc1Cl
inconclusive: Potency [1] 54.9 µM [falling, single point] | Potency [2] 54.9 µM [cytotoxic, single point] | Potency [3] 61.6 µM [falling, single point] | Potency [13] 54.9 µM [cytotoxic, single point] | Potency [4] 54.9 µM [cytotoxic, single point] | Potency [5] 54.9 µM [activator, single point] | Potency [14] 54.9 µM [activator, partial curve, poor fit] | Potency [15] 61.6 µM [cytotoxic, single point] | Potency [9] 54.9 µM [activator, single point] | Potency [7] 54.9 µM [activator, single point]

Nc1ccc(N=Nc2ccc(N)cc2)cc1
inactive: Potency [1] | Potency [2] | Potency [8]

COc1ccc(S(=O)(=O)N2C(=O)[C@@](c3ccccc3OC)(N3C[C@H](O)C[C@H]3C(=O)N(C)C)c3cc(Cl)ccc32)c(OC)c1
inconclusive: Potency [1] 43.6 µM [falling, partial curve] | Potency [3] 54.9 µM [falling, partial curve] | Potency [13] 61.6 µM [cytotoxic, partial curve, poor fit] | Potency [10] 54.9 µM [falling, partial curve, poor fit]
inactive: Potency [5]

CCOC(=O)C1=C(C)NC(C)=C(C(=O)OC)C1c1cccc([N+](=O)[O-])c1 (centres undefined)
inconclusive: Potency [1] 21.3 µM [falling, partial curve] | Potency [2] 21.3 µM [cytotoxic, partial curve] | Potency [3] 19 µM [falling, partial curve, poor fit] | Potency [13] 23.9 µM [cytotoxic, single point] | Potency [10] 21.3 µM [falling, partial curve] | Potency [15] 19 µM [cytotoxic, partial curve]
active: Potency [16] 5.35 µM

CCCCC(CC)COC(=O)c1ccccc1O (centres undefined)
inactive: Potency [1] | Potency [8]
inconclusive: Potency [12] 2.13 µM [activator, partial curve, poor fit]

CC(=O)S[C@@H]1CC2=CC(=O)CC[C@]2(C)[C@H]2CC[C@@]3(C)[C@@H](CC[C@@]34CCC(=O)O4)[C@H]12
inconclusive: Potency [1] 49 µM [falling, partial curve] | Potency [2] 38.9 µM [cytotoxic, partial curve] | Potency [13] 30.9 µM [cytotoxic, partial curve] | Potency [10] 49 µM [falling, partial curve, poor fit] | Potency [4] 43.6 µM [cytotoxic, partial curve] | Potency [9] 49 µM [activator, partial curve, poor fit]

COc1ccc(-c2coc3cc(O)cc(O)c3c2=O)cc1
active: Potency [2] 44 µM and 49 µM
inconclusive: Potency [1] 55.4 µM [falling, single point] | Potency [3] 62.2 µM [falling, single point] | Potency [13] 44 µM [cytotoxic, partial curve] and 49 µM [cytotoxic, partial curve] | Potency [10] 55.4 µM [falling, partial curve] | Potency [4] 43.6 µM [cytotoxic, partial curve] | Potency [15] 55.4 µM [cytotoxic, single point] | Potency [9] 55.4 µM [activator, partial curve, poor fit] and 61.7 µM [activator, single point] | Potency [6] 61.7 µM [activator, single point]
